Results: PubChem BioAssay AID602310 (National Center for Advancing Translational Sciences (NCATS), 2012)
Hit rate of the full screen: of about 410,000 compounds, about 310 (0.076%) were called active. Inconclusive results, whose numbers are uncertain, are shown with a selection of clear calls. The call rests on the fitted dose curve; in most records, active means well fitted curve in the direction sought with a large enough effect; inconclusive means small, poorly fitted or top-dose-only effect; inactive means flat fitted curve, though single readings scatter. Potencies beside an inconclusive call are fits to weak or partial responses and may not hold up.

What follows are compounds tested against DNA dC->dU-editing enzyme APOBEC-3G (Homo sapiens) (UniProt Q9HC16) (assay: qHTS for Inhibitors of Vif-A3G Interactions: qHTS). Settings: HeLa A3G-eYFP + Vif (tagged APOBEC3G with the HIV-1 protein that degrades it), YFP fluorescence, overnight; series mostly up to 46.1 µM.
UniProt Q9HC16, sequence (Q9HC16 whole entry, looked up): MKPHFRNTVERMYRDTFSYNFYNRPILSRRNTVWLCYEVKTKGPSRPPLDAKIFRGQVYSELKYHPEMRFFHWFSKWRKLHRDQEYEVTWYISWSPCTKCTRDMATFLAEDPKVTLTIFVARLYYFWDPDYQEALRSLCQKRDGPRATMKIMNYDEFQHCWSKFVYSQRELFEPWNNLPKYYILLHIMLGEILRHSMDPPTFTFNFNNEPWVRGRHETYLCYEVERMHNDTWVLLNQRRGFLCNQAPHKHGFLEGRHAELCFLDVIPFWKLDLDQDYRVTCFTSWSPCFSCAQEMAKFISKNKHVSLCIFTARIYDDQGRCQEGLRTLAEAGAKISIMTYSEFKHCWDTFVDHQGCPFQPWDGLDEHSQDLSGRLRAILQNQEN
In short: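 HeLa cells stably expressing Vif and C-terminally eYFP-tagged A3G, seeded overnight at 37 deg C, then exposed to compound by pintool overnight at 37 deg C. Rise in yellow fluorescence (Ex 488/Em 500-530, Acumen) marks blocked Vif-driven A3G degradation.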
Further: nearly all actives have a fitted effect of over 60% in size.
Potency means the concentration at half of the fitted maximal effect; tags describe the fitted curve by direction and shape.

SMILES	Potency
COc1ccc(/C=N\NC(=O)c2cc3c(ccc4ccccc43)o2)cc1O	inconclusive: 11.2 µM [inhibitor, partial curve, poor fit]
CCN1CCN(Cc2cccc(Oc3ccccc3)c2)CC1	inactive
N#Cc1c(-c2ccncc2)cc(-c2ccc(F)cc2)nc1N	inactive
Cn1c(SCC(=O)N(C2CCCCC2)C2CCCCC2)nnc1-c1cccs1	inconclusive: 14.1 µM [inhibitor, single point]
C=C1C=C(C(F)F)n2ncc(C(=O)N3CCN(c4ccccc4)CC3)c2N1	inconclusive: 35.5 µM [inhibitor, single point]
Cc1ccc(C2=NN(C(=O)CSc3nccn3C)C(c3ccco3)C2)cc1 (stereo not given)	inconclusive: 11.2 µM [inhibitor, partial curve, poor fit]
N#C/C(=C(/O)COC(=O)COc1ccc(Cl)cc1)c1nc2ccccc2[nH]1	inconclusive: 15.8 µM [inhibitor, single point]
Cc1ccc(Sc2cnn(-c3ccccc3)c(=O)c2Cl)cc1	inconclusive: 22.4 µM [inhibitor, single point]
CCOC(=O)c1ccc(NC(=O)CSc2nc(-c3ccc(OC)cc3)cc(C(F)(F)F)c2C#N)cc1	inconclusive: 20 µM [inhibitor, single point]
CCN(CC)S(=O)(=O)c1cccc(C(=O)OCC(=O)Nc2ccc3c(c2)c2ccccc2n3CC)c1	inconclusive: 15.8 µM [inhibitor, single point]
Cc1nc2cc(NC(=O)CSc3nc4c(C)cccc4cc3C#N)ccc2s1	inconclusive: 3.55 µM [inhibitor, single point]
Cc1ccc(-c2ccc(=O)n(CC(=O)NCCc3ccc(Cl)cc3)n2)cc1	inactive
COc1ccc(S(=O)(=O)Nc2cc(Sc3ncn[nH]3)c(O)c3ccccc23)cc1	inconclusive: 10 µM [inhibitor, partial curve, poor fit]
COc1cc(/C=C(/C#N)C(=O)Nc2ccccc2)ccc1OCc1ccc(C(=O)O)cc1	inactive
COc1cccc(-c2cnc3c(NC(C)=O)cc(-c4ccc(C(=O)N5CCOCC5)cc4)cn23)c1	inconclusive: 28.2 µM [inhibitor, single point]
NC(Cc1ccc(C(F)(F)F)cc1)c1csc(Nc2ccc(C(=O)c3ccccc3)cc2)n1 (stereo not given)	inactive
c1ccc(CNc2ncnc3c2cnn3Cc2ccccc2)cc1	inconclusive: 4.47 µM [inhibitor, partial curve, poor fit]
COc1cccc(-c2nc3ccccc3c(=O)o2)c1	inactive
O=C(c1ccccc1)c1cn(Cc2ccc(F)cc2)c2ccccc2c1=O	inconclusive: 11.2 µM [inhibitor, single point]
Cc1cc(NC(=O)CSc2nnc3c(C)cc4c(C)ccc(C)c4n23)no1	inconclusive: 7.08 µM [inhibitor, full curve]
O=C1C=CC(=O)C(CNc2ccc(C(=O)OCc3ccccc3)cc2)=C1	inconclusive: 17.8 µM [inhibitor, single point]
Cc1cc2c(cc1C)C(c1ccccc1OC(C)C)CC(=O)N2 (stereo not given)	inconclusive: 5.01 µM [inhibitor, full curve]

SMILES	Potency
CCOc1ccc(N(CC(=O)Nc2ccccc2OC)S(=O)(=O)c2ccccc2)cc1	inconclusive: 0.316 µM [inhibitor, full curve, poor fit]
Cc1cc(NC(=O)CCS(=O)(=O)c2nc(-c3ccccc3)cc(C(F)(F)F)n2)no1	inconclusive: 22.4 µM [inhibitor, single point]
COc1ccccc1Nc1nc(Cl)c(C=O)s1	inconclusive: 11.2 µM [inhibitor, partial curve, poor fit]
CSc1nc(N(C)NC(=O)c2ccc(Cl)cc2)c2ccccc2n1	inconclusive: 0.316 µM [inhibitor, full curve, poor fit]
CCCn1nc(NC(=O)C(C)C)c2cc3cc(OC)ccc3nc21	inconclusive: 20 µM [inhibitor, partial curve, poor fit]
COc1ccccc1N=c1oc2cc(O)ccc2cc1C(N)=O	inconclusive: 20 µM [inhibitor, single point]
O=C(c1cccc(Cl)c1)c1nn(-c2ccccc2)c(=O)cc1C(F)(F)F	inactive
COc1ccc(/C=N/NC(=O)c2nn(-c3ccc(Cl)cc3)c(=O)c3c(N)scc23)cc1	inconclusive: 35.5 µM [inhibitor, single point]
Cc1ccc(S(=O)(=O)/N=C2/C=C(Sc3ncn[nH]3)C(=O)c3ccccc32)cc1	inconclusive: 3.16 µM [inhibitor, partial curve, poor fit]
COC1=CC(=O)C[C@@H](C)[C@]12Oc1c(Cl)c(OC)cc(OC)c1C2=O	inconclusive: 35.5 µM [inhibitor, single point]
O=C(/C=C/c1cccc([N+](=O)[O-])c1)c1ccc([N+](=O)[O-])o1	inconclusive: 5.62 µM [inhibitor, single point]
Cc1cc2nnc(SCC(=O)NCc3ccco3)n2c2ccccc12	inconclusive: 7.94 µM [inhibitor, partial curve, poor fit]
Fc1cccc(Cc2c(-c3ccccc3)nc3ccc(Cl)cn23)c1	inconclusive: 20 µM [inhibitor, single point]
COc1cc2c(cc1OC)C(SC)=NC1(CCCC1)C2	inconclusive: 35.5 µM [inhibitor, single point]
Oc1[nH]c2ccccc2c1N=Nc1ccccc1F	inconclusive: 25.1 µM [inhibitor, single point]
Cc1ccccc1NC(=O)c1c(C)oc2ccc(O)c(CN3CCCCCC3)c12	inactive
COc1ccc(/C=C2\SC(=S)N(NS(=O)(=O)c3ccc(C)cc3)C2=O)c(OC)c1	inactive
CN(NC(=O)c1ccccc1)c1nc2ccccc2nc1C(F)(F)F	inconclusive: 6.31 µM [inhibitor, partial curve, poor fit]
OCC1OC(n2cnc3c(=S)nc[nH]c32)C(O)C1O (stereo not given)	inconclusive: 2.82 µM [inhibitor, full curve, poor fit]
CCOc1ccc2nc(NC3=NC(c4ccc(OC)cc4)CC(=O)N3)nc(C)c2c1 (stereo not given)	inconclusive: 28.2 µM [inhibitor, single point]
CCOC(=O)CSC1=NC(=O)/C(=C/c2ccc(OC)cc2)S1	inconclusive: 15.8 µM [inhibitor, partial curve, poor fit]
COc1cc(C(=O)N/N=C(\C)c2ccc3c(c2)OCO3)cc(OC)c1OC	inconclusive: 35.5 µM [inhibitor, single point]

SMILES	Potency
Cc1ccc2nc(-c3ccc4c(c3)OCCO4)cn2c1	inconclusive: 4.47 µM [inhibitor, partial curve, poor fit]
O=C(/C=C/c1cccc([N+](=O)[O-])c1)c1ccco1	inconclusive: 35.5 µM [inhibitor, single point]
O=C(COc1ccccc1-c1ccccc1)NN=C1CCCC1	inconclusive: 2.82 µM [inhibitor, full curve, poor fit]
Cc1cc(Nc2cc(Cl)ccc2C)n2nc(-c3ccccc3)nc2n1	inactive
CCS(=O)(=O)c1ccc(-c2csc(-c3ccccc3Cl)n2)c(Cl)c1Cl	inactive
NC(CSC(c1ccccc1)(c1ccccc1)c1ccccc1)C(=O)O (stereo not given)	inconclusive: 2.24 µM [inhibitor, full curve, poor fit]
COc1ccc(Nc2nc3cc(C)ccc3cc2C#N)cc1	inconclusive: 11.2 µM [inhibitor, partial curve]
O=C(Nc1nc2ccc(F)cc2s1)c1ccccn1	inactive
Oc1ccc(-c2csc(Nc3ccccn3)n2)c(O)c1	inconclusive: 17.8 µM [inhibitor, single point]
O=C(NCCc1ccccc1)c1ccc2c(c1)nc1n2CCOC1	inactive
O=C(CC1C(=O)CCCC1=O)c1ccccc1	inconclusive: 14.1 µM [inhibitor, single point]
N#CC1=C(N)Oc2cc(N)ccc2C1c1ccccc1 (stereo not given)	inconclusive: 17.8 µM [inhibitor, partial curve, poor fit]
Cc1cc(C2C(C#N)=C(N)SC(N)=C2C#N)c(C)s1	inconclusive: 35.5 µM [inhibitor, single point]
O=c1[nH]c(CN2CCN(c3ccccc3)CC2)nc2scc(-c3ccccc3)c12	inconclusive: 12.6 µM [inhibitor, partial curve, poor fit]
CN(C)/C=C/C(=O)/C=C/c1cn(-c2ncc(C(F)(F)F)cc2Cl)c2ccccc12	inconclusive: 35.5 µM [inhibitor, single point]
CCCc1cc(N2CCN(c3ccccc3F)CC2)n2cnnc2n1	inactive
C/C(=N\NC(=O)Cc1ccc(Cl)cc1)c1ccccn1	inconclusive: 35.5 µM [inhibitor, single point]
O=C(Nc1ccc(N2CCOCC2)cc1)c1ccc([N+](=O)[O-])o1	inconclusive: 22.4 µM [inhibitor, single point]
Cn1cc(/C=C2\SC(=S)N(NC(=O)c3cccc(Cl)c3)C2=O)c2ccccc21	inconclusive: 3.16 µM [inhibitor, full curve, poor fit]
C[C@H](O)[C@@H]1CN2CCc3c([nH]c4ccccc34)[C@@H]2C[C@@H]1N(C)C(=O)c1ccco1	inconclusive: 11.2 µM [inhibitor, partial curve, poor fit]
Cc1cccc(NC(=S)NC(C)CCc2ccccc2)c1 (stereo not given)	inactive
